These results are taken from PubChem BioAssay AID485344 (National Center for Advancing Translational Sciences (NCATS), 2010).

Structures are written as SMILES. The whole screen tested about 340,000 compounds, of which about 6,900 (2%) were called active. Cut-off read from the data, not from the text of the source: active = inhibition above about 30%; inactive = below that, where a call was filed. Only a part is listed here, and it is no random draw. Where no call is shown, the source filed none.

UniProt P14416, sequence (P14416 whole entry, looked up): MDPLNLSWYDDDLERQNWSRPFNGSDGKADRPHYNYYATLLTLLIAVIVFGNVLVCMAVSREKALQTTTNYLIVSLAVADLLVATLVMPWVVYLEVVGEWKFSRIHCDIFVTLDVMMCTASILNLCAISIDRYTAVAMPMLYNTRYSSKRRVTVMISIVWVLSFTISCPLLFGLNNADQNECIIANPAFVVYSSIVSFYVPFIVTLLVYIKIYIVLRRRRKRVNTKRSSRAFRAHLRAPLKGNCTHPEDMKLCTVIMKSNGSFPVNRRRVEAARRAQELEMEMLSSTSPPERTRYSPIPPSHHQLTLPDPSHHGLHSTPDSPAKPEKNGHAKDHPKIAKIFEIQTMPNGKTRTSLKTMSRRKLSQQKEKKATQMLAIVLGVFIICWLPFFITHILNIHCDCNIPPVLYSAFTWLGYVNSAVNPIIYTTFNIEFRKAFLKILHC

This assay concerns the target D(2) dopamine receptor (Homo sapiens) (UniProt P14416). Put plainly: HTS Assay for Allosteric Antagonists of the Human D2 Dopamine Receptor: Primary Screen for Antagonists. Note: 0% is about no effect. The note with it: HEK293 TREx D2 cells, calcium flux, dopamine EC80; at 10 µM; stronger effect = higher value. The method, boiled down:
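Compounds are added to dye-loaded, induced HEK293 T-REx cells coupled to calcium release via D2; after a 3 min kinetic read an EC80 dopamine stimulus is given and fluorescence is recorded for 3 more min.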
On the technique in general: Calcium flux is commonly read through the fluorescence of an indicator in the cells.
By inhibition is commonly meant the change of the read-out against control, counted positive when it falls. For `CCCCN(Cc1ccccc1)C(=O)CN(C)S(=O)(=O)c1ccc2c(c1)c(=O)n(C)c(=O)n2C`, the inhibition was -22.1%. Take `O=C(Nc1cc(C(F)(F)F)ccc1Cl)c1cc(S(=O)(=O)NCc2ccccc2)ccc1F`: the inhibition is -21.8%. For `CC1CN(C(=O)CCC(=O)NCc2cccnc2)c2ccccc2O1` (centres undefined), the inhibition is active: 35.5%. For `CCOC(=O)c1cccc(NC(=O)Cn2c(=O)nc(-c3ccccc3)c3ccccc32)c1`, the inhibition came to 6.26%.

`CCc1cc2c(cc3c(=O)n(CCCC(=O)NCc4ccccc4Cl)nc(CC)n32)s1`: the inhibition amounted to 8.07%. `Cc1cccc(OCc2ccc(-c3nc(C#N)c(N4CCC(C(N)=O)CC4)o3)o2)c1`: the inhibition is -21.4%. Turning to `COc1ccccc1CCNC(=O)CCn1c(=O)c2cccn2c2ccc(F)cc21`, the inhibition was 9.7%.

For the molecule `CCOc1cc(C(=O)Nc2ccc3oc(-c4ccc(CC)cc4)nc3c2)cc(OCC)c1OCC`, the inhibition is -5.93%. Consider `COc1ccc(CCNC(=O)CCc2c(C)nc3cc(-c4ccccc4)nn3c2C)cc1OC`, for which the inhibition is 5.41%. On to `Cc1cc(C)cc(NC(=O)CSCn2nnc3c(=O)[nH]c(Cc4ccc(F)cc4)nc32)c1`, for which the inhibition is -9.22%.

With `CCN1C(=O)C(CC(=O)Nc2ccc(Cl)cc2)N(NC(=O)c2ccncc2)C1=S` (centres undefined), the inhibition is active: 31.1%. On to `COc1ccc(OC)c(CCNC(=O)c2cc3c(-c4ccccc4F)nn(C)c3s2)c1`, for which the inhibition was -15.3%. Regarding `COc1ccc(C)cc1NS(=O)(=O)c1ccc2c(c1)[C@H]1C=CC[C@H]1[C@@H](c1cccc(Cl)c1)N2`, the inhibition is -27.6%.

With `COc1cc(OC)cc(C(=O)NCC(=O)N2CCCCCCC2)c1`, the inhibition is active: 33.6%.

Regarding `CCc1cc(C(=O)Nc2cnn(Cc3ccc(F)cc3)c2)no1`, the inhibition is -8.29%. With `Cc1cccc(NC(=O)Cn2cc(S(=O)(=O)c3ccc(F)cc3)c(=O)c3cc4c(cc32)OCO4)c1` the figure was 5.75%.

With `Cc1ccc(-c2c(C(=O)N3CCN(c4cccc(C)c4C)CC3)oc(=O)c3ccccc23)cc1`, the inhibition was -5.39%. Consider `CC(=O)c1cccc(S(=O)(=O)N2CCC(C(=O)OC3CCOC3=O)CC2)c1` (centres undefined), for which the inhibition was active: 43.4%. For `CC(=O)c1cccc(NC(=O)c2cnn(-c3cccc(C)c3)c2-n2cccc2)c1`, the inhibition is -4.84%.

Turning to `O=C(Cn1c(-c2cccs2)cc2cc(Cl)ccc21)NCc1ccccc1`, the inhibition was -0.931%. Turning to `CCCSc1nc(=O)c2c(n1C)NC(=O)CC2c1cccc(F)c1F` (centres undefined), the inhibition was -8.07%. Take `Cc1cc(SCC(=O)N(C)c2c(N)n(Cc3ccccc3)c(=O)[nH]c2=O)nc2ccccc12`: the inhibition was active: 38.2%. On to `CCc1ccccc1NC(=O)CN(Cc1ccccc1)S(=O)(=O)c1ccc2nc(C)sc2c1`, for which the inhibition turned out to be 0.714%.

Regarding `COc1ccc(-n2nc3ccc(NC(=O)COc4ccc(C)c(C)c4)cc3n2)cc1`, the inhibition was -4.6%. `CCOC(=O)c1c(NC(=O)CCCOc2ccc(C(C)(C)C)cc2)sc2c1CCC2`: the inhibition was 9.01%. `COc1ccc(N2CCN(C(=O)Cc3c(C(=O)O)c(C)cn3C)CC2)cc1`: the inhibition came out at 0.456%. As for `CCCN(CCC)CCNC(=O)C1CCN(S(=O)(=O)c2cccc3nsnc23)CC1`, the inhibition is active: 37.5%. In the case of `COc1ccc(Nc2ccc3cc(S(=O)(=O)N4CCCC4)ccc3n2)cc1Cl` it was -4.66%.

As for `Cc1ccc2oc(=O)c3cnn(CC(=O)N(C)c4ccc(F)cc4)c3c2c1`, the inhibition is -13.2%.

`CC(=O)c1ccc(NC(=O)C2CCN(S(=O)(=O)c3ccc4c(c3)CCCN4C(=O)C3CCC3)CC2)cc1`: the inhibition is -9.76%. For the molecule `CCOc1ccc(-n2c(SCC(=O)Nc3ccccc3OC)nc3c(oc4ccccc43)c2=O)cc1`, the inhibition amounted to 11.7%.

In the case of `COc1ccccc1OCC(=O)N(Cc1ccc(N(C)C)cc1)CC1CCCO1` (centres undefined), the inhibition was -0.163%. For `Cc1cc(C)c(NC(=O)CSc2nc(C)cc(C)c2C#N)c(C)c1`, the inhibition turned out to be 0.365%.

For the molecule `COc1ccc(N2CCN(S(=O)(=O)c3c(C)nc4scc(C)n4c3=O)CC2)cc1`, the inhibition was -8.84%. As for `O=C(CN1Cc2ccccc2C1=O)Nc1cc(F)ccc1F`, the inhibition came to 1.27%. With `Cc1cccc(N(C)C(=O)C(Cc2ccccc2)NS(=O)(=O)c2cccc3nsnc23)c1` (centres undefined) the figure was 23.3%; with `Cc1ccc(NC(=O)C2CCCN(S(=O)(=O)c3cccc4cccnc34)C2)cc1Cl` (centres undefined), 26.3%; with `Cc1ccc(C(=O)Nc2cccc(C(=O)OCc3cc(=O)n4c5c(sc4n3)CCCC5)c2)cc1`, 3.4%. With `COc1cc(OC)c(NC(=O)c2ccc3nc(C(C)C)oc3c2)cc1Cl`, the inhibition was -4.9%.

Take `Cc1ccc2[nH]cc(C(c3ccccc3)c3cccs3)c2c1` (centres undefined): the inhibition is -24.9%. Regarding `COc1ccccc1CNC(=O)c1cn(C)c2ccc(S(=O)(=O)N3CCC(C)CC3)cc2c1=O`, the inhibition is -0.793%. As for `Cc1c(F)cccc1NC(=O)C1CCCN1S(=O)(=O)c1ccc(F)cc1` (centres undefined), the inhibition is -15.6%. Turning to `CC(=O)c1cccc(-n2c(=O)c3c4c(sc3n(Cc3ccccc3Cl)c2=O)CN(C(C)=O)CC4)c1`, the inhibition was found to be 9.95%.

For the molecule `CCCOC(=O)c1c(NC(=O)c2nc3ncccn3n2)sc(C(=O)OCC)c1C`, the inhibition was -12.9%.

For the molecule `COc1cc(OC)c(C2C=C(C(=O)O)Nc3ncnn32)cc1OC` (centres undefined), the inhibition is -12.3%. With `COc1ccc(S(=O)(=O)NCc2cn3c(C)csc3n2)cc1F` the figure was active: 31.7%; with `Cc1ccc(C2CCN(C(=O)c3cnn(-c4ccccc4Cl)c3C3CCN(C(=O)OC(C)(C)C)CC3)C2)cc1` (centres undefined), 8.9%; with `COc1ccc(CNC(=O)c2cc3ccccn3n2)c(OC)c1`, 1.98%. In the case of `O=C(c1ccc2c(c1)OCO2)c1cn(Cc2ccc(F)cc2)c2ccccc2c1=O`, the inhibition is 7.65%. On to `Cn1nc(C(=O)N2CCN(c3ccccc3)CC2)c2c1-c1ccccc1SC2`, for which the inhibition came to 9.04%. With `CCCCN(CC)C(=O)Cn1c(=O)n(-c2ccc(OCC)cc2)c(=O)c2c3c(sc21)CCC3` the figure was -3.21%; with `CCOC(=O)c1ccc(N(C(=O)c2ccco2)C(C(=O)NC2CCCC2)c2ccncc2)cc1` (centres undefined), active: 35.8%; with `Cn1c(=O)c2sccc2n2c(CCCC(=O)Nc3ccc(F)cc3F)nnc12`, 5.38%.

Regarding `COCCCNc1ncnc2c1c(-c1ccccc1)cn2-c1ccc(C)c(Cl)c1`, the inhibition was 6.57%. With `Cc1cc2nn(-c3ccc(Cl)cc3)nc2cc1NC(=O)C(C)C` the figure was -4.78%; with `O=C(COc1ccc(Cl)cc1)Nc1cc(-c2ccccc2)no1`, -1.81%; with `COc1ccc(OC)c(NC(=O)CN2C(=O)CC(c3ccco3)Sc3ccccc32)c1` (centres undefined), -5.07%. For the molecule `COc1ccc2c(c1)c1c(c(=O)n(-c3ccccc3C)c(=O)n1Cc1ccccc1C)n2C`, the inhibition was found to be 6.58%. On to `CCc1ccc(NC(=O)CSC2=Nc3ccccc3C3=NC(CCC(=O)NCc4ccccc4OC)C(=O)N23)cc1` (centres undefined), for which the inhibition is -6.2%.
